# Out of some 310,000 compounds screened, about 14,000 (4.5%) showed an effect of 50% or more. The effect is printed as a negative number. The list shows a part of the results.
# Biological target: human ether-à-go-go-related gene (hERG) potassium channel (human, UniProt Q12809)
# Experiment: primary screen, population patch clamp on CHO cells stably expressing hERG
# 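Also: peak tail current of the secondary pulse compared with the same well before compound.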
# Chain of human ether-à-go-go-related gene (hERG) potassium channel (Q12809 whole entry, looked up): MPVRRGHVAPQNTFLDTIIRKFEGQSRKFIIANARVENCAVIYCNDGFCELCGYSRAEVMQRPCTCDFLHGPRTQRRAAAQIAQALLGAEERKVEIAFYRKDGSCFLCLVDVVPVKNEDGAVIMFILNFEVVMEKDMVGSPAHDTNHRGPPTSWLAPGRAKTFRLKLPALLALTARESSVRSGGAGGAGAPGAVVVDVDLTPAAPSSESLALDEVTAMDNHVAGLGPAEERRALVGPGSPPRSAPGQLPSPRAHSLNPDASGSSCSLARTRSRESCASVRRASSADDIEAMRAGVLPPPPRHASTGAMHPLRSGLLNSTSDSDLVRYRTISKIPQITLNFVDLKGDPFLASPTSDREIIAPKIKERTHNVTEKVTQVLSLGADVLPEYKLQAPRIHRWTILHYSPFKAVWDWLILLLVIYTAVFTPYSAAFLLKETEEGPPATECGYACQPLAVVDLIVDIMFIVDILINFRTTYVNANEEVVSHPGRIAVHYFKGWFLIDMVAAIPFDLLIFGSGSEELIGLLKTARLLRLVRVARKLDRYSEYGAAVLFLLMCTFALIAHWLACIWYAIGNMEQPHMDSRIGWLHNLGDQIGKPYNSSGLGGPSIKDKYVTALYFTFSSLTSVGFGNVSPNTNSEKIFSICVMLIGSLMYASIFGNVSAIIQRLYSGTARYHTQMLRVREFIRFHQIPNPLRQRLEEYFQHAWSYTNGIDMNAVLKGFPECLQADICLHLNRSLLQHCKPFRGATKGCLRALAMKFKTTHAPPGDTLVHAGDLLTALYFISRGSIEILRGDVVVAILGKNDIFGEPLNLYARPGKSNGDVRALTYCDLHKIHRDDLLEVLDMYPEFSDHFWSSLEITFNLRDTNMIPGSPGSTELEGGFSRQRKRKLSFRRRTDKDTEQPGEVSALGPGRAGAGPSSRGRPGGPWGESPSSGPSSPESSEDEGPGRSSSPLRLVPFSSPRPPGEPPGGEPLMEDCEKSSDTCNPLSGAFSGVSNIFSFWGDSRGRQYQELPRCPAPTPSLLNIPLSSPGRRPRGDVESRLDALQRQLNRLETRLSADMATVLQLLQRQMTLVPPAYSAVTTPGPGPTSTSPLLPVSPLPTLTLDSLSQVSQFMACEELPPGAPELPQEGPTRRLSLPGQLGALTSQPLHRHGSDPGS
row,Structure (SMILES),"hERG current change (%, negative = inhibition) at 10uM [%]"
1,CCOc1cc(S(=O)(=O)Nc2ccc(Cl)cn2)ccc1F,18
2,CCOC(=O)C1=C(CBr)NC(=O)NC1C (stereo not drawn),26.6
3,O=c1c2ccccc2nnn1-c1ccc(Br)cc1,12
4,COC(=O)Cn1ccc2cc(S(=O)(=O)N3CCCCC3)ccc21,-8.73
5,CC(=O)OC(C[N+]1(C)CCCCCC1)c1ccccc1.[I-] (stereo not drawn),18.1
6,O=C(NNc1ccccc1F)c1ccccc1,-6.12
7,C=CCNc1oc(-c2cccs2)nc1S(=O)(=O)c1ccccc1,-24.7
8,CCN1CCN(C(=O)COc2ccc(S(=O)(=O)Nc3ccc(Cl)cc3)cc2)CC1,-17.6
9,O=C(N/N=C/c1ccco1)c1cc(C2CC2)[nH]n1,18.1
10,COc1nc(-c2ccc(Cl)cc2)nnc1C,2.25
11,COc1ccc(CNC(=O)c2cccc(N3CCCC3=O)c2)cc1,-5.23
12,Cc1ccc(NC(=O)NC(=O)CN2CCC(C(N)=O)CC2)c(C)c1,12
13,O=C(O)c1ccc2c(c1)ncn2C1CCCC1,21.1
14,CCc1noc(C)c1C(=O)N1CCCSC1=Nc1ccccc1,2.65
15,O=C(CCc1ccc(S(=O)(=O)NCCc2ccccc2)cc1)Nc1ccc2c(c1)OCO2,12.3
16,CCOc1ccccc1NC(=O)NC(=O)N(C)S(=O)(=O)c1ccc(C)cc1,12.8
17,CCOc1ccc(NC(=O)CCC(=O)O)cc1,5.48
18,Cc1cc(C)cc(Nc2c3c(nc4ncnn24)CCC3)c1.Cl,-13
19,Cc1cccc(NC(=O)CSc2nc(N)cc(N)n2)c1,2.95
20,CCc1nnc(NC(=O)c2cccnc2)s1,10.2
21,COCCNc1cc(-c2ccccc2)nc2cc(-c3cccc(F)c3)nn12,9.8
22,COCCCNC(=O)CC(NS(=O)(=O)c1ccc(C)cc1)c1ccco1 (stereo not drawn),15
23,CCc1ccc(Nc2oc(C)cc(=O)c2C(C)=O)cc1,-0.0348
24,CC(C)(C)C1CCc2onc(C(=O)O)c2C1 (stereo not drawn),16.7

row,Structure (SMILES),"hERG current change (%, negative = inhibition) at 10uM [%]"
1,COc1cc(/C=N/NC(=O)c2ccc(NS(=O)(=O)c3cccs3)cc2)cc(OC)c1O,10.5
2,CCN(CC)C(=O)CSc1nc(O)c(Cc2ccccc2)c(=O)n1-c1ccccc1C,2.09
3,CCOc1ccc(N2C(=O)CC(N3CCN(c4ccc(F)cc4)CC3)C2=O)cc1 (stereo not drawn),-7.42
4,CCOCCCN1CN(S(=O)(=O)c2ccc(Cl)cc2)c2nc3ccccc3nc21,-8.09
5,O=C1CN(C(=O)/C=C/c2ccccc2)CCN1,18.2
6,Cc1ccccc1NS(=O)(=O)c1ccc(C(=O)N2CCCC(C(F)(F)F)C2)cc1 (stereo not drawn),6.13
7,O=C(NCC(=O)N1CCCC1C(=O)O)OC1CCCCC1 (stereo not drawn),-6.8
8,COCCn1c(=S)[nH]c2ncccc2c1=O,20.3
9,NC(=O)CC(NC(=O)Cc1ccc(Br)cc1)c1ccc(N2CCN(c3ccccn3)CC2)c([N+](=O)[O-])c1 (stereo not drawn),17.2
10,CCSc1ccccc1C(=O)Nc1cc(C)on1,-4.62
11,Cc1ccc(Cc2c(C)nc3nc(SCC(=O)NCCCN4CCCC4)nn3c2C)cc1,-28.4
12,CC(C)NC(=O)NCCCCCCS(C)=O (stereo not drawn),9.44
13,COc1ccccc1-n1cnc2cc(NS(=O)(=O)c3ccccc3)ccc21,-57.5
14,O=C(NC1CCCCC1)C1CCN(S(=O)(=O)c2cccc3cccnc23)CC1,0.0654
15,CCc1ccc(N(CC)C(=O)Cc2c(C(=O)O)n(C)c3ccccc23)cc1,19.5
16,COc1ccc(OC)c(NC(=O)CCC(=O)Nc2nnc(C(F)(F)F)s2)c1,-0.147
17,Cc1cccn2c(=O)c3cc(C(=O)NC4CCCCCC4)sc3nc12,9.51
18,CCOC(=O)C1CCC(CNCc2ccccc2C)CC1.Cl (stereo not drawn),-24.4
19,CCC(=O)NCc1cc(-c2nn(C)c(=O)c3ccccc23)ccc1C,-2.5
20,O=C(Cc1ccccc1Cl)Nc1ccc(S(=O)(=O)Nc2nccs2)cc1,13.9
21,Cc1cc(C)n(-c2ccc(C(=O)Nc3cccnc3Cl)cc2)n1,13.5
22,CCOc1cc(N2CCOCC2)c(OCC)cc1NC(=O)CN1C(=O)NC(Cc2ccccc2)C1=O (stereo not drawn),-25.5
23,CCOC(=O)c1ccc(N2C(=O)c3cccc4c(C(=O)O)ccc(c34)C2=O)cc1,16.2
24,Cc1ccnc(NS(=O)(=O)c2ccc(NC(=O)/C=C/c3ccccc3)cc2)n1,8.71

row,Structure (SMILES),"hERG current change (%, negative = inhibition) at 10uM [%]"
1,Cc1nc2ccccc2n1CC(O)COCC1CC=CCC1 (stereo not drawn),-20.5
2,CO/N=C\CC(=O)Nc1ccc(F)cc1,2.81
3,Cc1cc(N2CCCCC2)nc(N2CCCCC2)n1,-39
4,C=CCn1c(O)c(C=NCCCOc2ccc(CC)cc2)c(=O)[nH]c1=S,21.8
5,CC(O)CNc1nc2c(c(=O)n(Cc3ccc(Cl)c(Cl)c3)c(=O)n2C)n1C (stereo not drawn),-17.3
6,Clc1ccc(Cl)c2sc(N3CCCC3)nc12,8.31
7,Cc1ccc(N2C(=O)c3ccccc3C2(O)c2ncc[nH]2)cc1 (stereo not drawn),15
8,C=C(C)Cn1c(C2CC(=O)N(Cc3ccccc3)C2)nc2ccccc21 (stereo not drawn),-30.2
9,COc1ccc(CN(C)C(=O)C23CC4CC(CC(C4)C2)C3)c(OC)c1,-25
10,COc1ccc(C(=O)N2CCN(c3ccccc3)CC2)cc1S(=O)(=O)N1CCCC1,-34.5
11,S=c1[nH]nc(CN2CCCCC2)n1-c1ccc(Cl)cc1,17.1
12,C=CCOc1ccc2nc(NC(=O)OC)[nH]c2c1,-4
13,Cc1ccc(C2=NNC(C(O)C(O)C(O)CO)S2)cc1 (stereo not drawn),11.6
14,COc1ccc(N=C2SC(CC(=O)Nc3cccc(Cl)c3)C(=O)N2Cc2ccco2)cc1 (stereo not drawn),1.84
15,COc1cccc(-c2nc(CS(=O)(=O)CC(=O)Nc3cc(F)ccc3F)c(C)o2)c1,8.16
16,O=C(Nc1cccc(-c2cn3cccnc3n2)c1)Nc1ccccc1F,14.7
17,CCOC(=O)N1CCC(N(CCN(C)C)C(=S)Nc2ccc(F)c(Cl)c2)CC1,-6.98
18,CCOC(=O)c1c(C)[nH]c(C)c1C(=O)COC(=O)CCOc1ccccc1OC,3.86
19,COCCOC(=O)c1c(C)n(C)c2ccc(OC(=O)N(C)C)cc12,0.575
20,CNC(=O)c1cc(NC(=O)CCn2nc(-c3ccccc3)c3ccccc3c2=O)ccc1OC,-9.1
21,Cc1oc(-c2cccs2)nc1CS(=O)CC(=O)NCCCOC(C)C (stereo not drawn),-3.05
22,CC(C)CCNC(=O)CN1N=C(c2ccc(Cl)cc2)CCC1=O,-15.8
23,CC(=O)Nc1ccc(S(=O)(=O)NCc2nc(-c3ccccc3C)no2)cc1,14.3
24,C=CCn1c2ccccc2c2nnc(SCc3ccc4nonc4c3)nc21,0.592

row,Structure (SMILES),"hERG current change (%, negative = inhibition) at 10uM [%]"
1,Cc1cc(=O)n2nc(N3CCCC(C(=O)NCc4ccccc4C)C3)sc2n1 (stereo not drawn),-23
2,Cc1ccccc1C(=O)OC(C)CN1CCN(C)CC1.Cl (stereo not drawn),-10.7
3,C=CCNC(=O)NC(=O)COC(=O)/C=C/c1cccc([N+](=O)[O-])c1,-24.6
4,Cl.O=C(Cc1ccccc1)NCCN1CCCC1,-12.3
5,O=C(O)CCN=Cc1c(O)c2ccccc2oc1=O,8.66
6,Cc1ccc(NC(=O)N/C=C/c2ccco2)cc1C,-1.57
7,CCCCNC1C(CC)C(CCC)C(C#N)(C#N)C1(C#N)C#N (stereo not drawn),-5.65
8,CCc1cccc(C)c1NC(=O)Cn1c(NCCO)nc2ccccc21,-4.86
9,COc1cc(Cl)cc(C(=O)O)c1OCC(=O)O,14.3
10,C/C(=C/CCC(C)[C@H]1CC[C@@]2(C)C3=C(CC[C@]12C)[C@@]1(C)CCC(=O)C(C)(C)[C@@H]1CC3)C(=O)O (stereo partly drawn),30.1
11,CCc1ccccc1N1C(=O)c2ccccc2S1(=O)=O,1.01
12,Cc1ccc(C(C)C)c(OCCNC(=O)c2ccccc2O)c1,15
13,COC(=O)CCC(=O)NNC(=O)c1ccc([N+](=O)[O-])cc1,17.3
14,Cc1ccc(-n2c(SCc3cc(=O)n4ccsc4n3)nnc2-c2cccnc2)c(C)c1,-25.5
15,CCCCn1c(=O)[nH]c(=O)c2c1nc(-c1ccccn1)n2CC,-2.03
16,CCOC(=O)N1CCN(S(=O)(=O)c2c(C(=O)N3CCCCC3)c(C)n(C)c2C)CC1,16.1
17,COc1ccccc1NC1=NCC(=O)N1Cc1ccccc1,3.09
18,Cl.OCCN(CC#CC(O)(c1ccccc1)C1CCCC1)CCO (stereo not drawn),5.41
19,CN(C(=O)CC1C(=O)NCCN1Cc1cccc(F)c1F)C1CCOCC1 (stereo not drawn),17.3
20,OC1(c2ccc(Cl)cc2)CN(c2ccccc2)C2=[N+]1CCS2.[Br-] (stereo not drawn),-50.4
21,COc1ccc(NC(=O)CSc2ccccc2)cc1S(=O)(=O)N1CCCCC1,-0.0204

# Source: PMC4336329 (PLoS ONE, 2015)
